Assay [1] concerns the target T1, DLL4 ECD/His tag (R&D 1506-D4-050) (UniProt Q9NR61 in part).
T1 construct: extracellular domain; Bought antigen coated on the ELISA plate; not shown: His tag
Briefly: direct bind ELISA, DLL4 on plate; DLL4 VD N-term.; HC Long, LC Long.

In assay [2] the target is T1, DLL4 ECD/His tag (R&D 1506-D4-050). Briefly: direct bind ELISA, DLL4 on plate; DLL4 VD N-term.; HC Short, LC Short.
The target of assay [3] is T2, placental growth factor (PLGF) (UniProt P49763-2 21-149, limits assumed).
T2 construct: also called P1GF
T2 sequence (looked up): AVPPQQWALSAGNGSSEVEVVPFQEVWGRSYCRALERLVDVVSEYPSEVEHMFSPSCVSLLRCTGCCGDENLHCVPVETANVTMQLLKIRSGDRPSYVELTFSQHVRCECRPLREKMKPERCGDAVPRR
Briefly: ligand-receptor binding competition assay, PlGF binding to VEGFR1; N-terminal VD.

B1: DVD469 (bispecific antibody, human IgG1, kappa)
heavy: EVQLVESGGGLVQPGGSLRLSCAASGFTFTDNWISWVRQAPGKGLEWVGYISPNSGFTYYADSVKGRFTISADTSKNTAYLQMNSLRAEDTAVYYCARDNFGGYFDYWGQGTLVTVSSASTKGPSVFPLAPEVQLVESGGGLVQPGGSLRLSCAASGYTFTNYGMNWVRQAPGKGLEWVGWINTYTGEPTYAADFKRRFTFSLDTSKSTAYLQMNSLRAEDTAVYYCAKYPHYYGSSHWYFDVWGQGTLVTVSS[omitted - human IgG1 constant region]
light: DIQMTQSPSSLSASVGDRVTITCRASQDVSTAVAWYQQKPGKAPKLLIYSASFLYSGVPSRFSGSGSGTDFTLTISSLQPEDFATTYYCQQSYTGTVTFGQGTKVEIKRTVAAPSVFIFPPDIQMTQSPSSLSASVGDRVTITCSASQDISNYLNWYQQKPGKAPKVLIYFTSSLHSGVPSRFSGSGSGTDFTLTISSLQPEDFATYYCQQYSTVPWTFGQGTKVEIKRTVAAPSVFIFPPSDEQLKSGTASVVCLLNNFYPREAKVQWKVDNALQSGNSQESVTEQDSKDSTYSLSSTLTLSKADYEKHKVYACEVTHQGLSSPVTKSFNRGEC
notes: DVD-Ig; HC long, LC long linker; also called DVD469H; DVD469L
B1 yielded an EC50 in assay [1] of 2.78 nM.

B2: DVD044 (bispecific antibody, human IgG1, kappa)
heavy: EVQLVESGGGLVQPGGSLRLSCAASGFTFTDNWISWVRQAPGKGLEWVGYISPNSGFTYYADSVKGRFTISADTSKNTAYLQMNSLRAEDTAVYYCARDNFGGYFDYWGQGTLVTVSSASTKGPEVQLVESGGGLVQPGGSLRLSCAASGYTFTNYGMNWVRQAPGKGLEWVGWINTYTGEPTYAADFKRRFTFSLDTSKSTAYLQMNSLRAEDTAVYYCAKYPHYYGSSHWYFDVWGQGTLVTVSS[omitted - human IgG1 constant region]
light: DIQMTQSPSSLSASVGDRVTITCRASQDVSTAVAWYQQKPGKAPKLLIYSASFLYSGVPSRFSGSGSGTDFTLTISSLQPEDFATTYYCQQSYTGTVTFGQGTKVEIKRTVAAPDIQMTQSPSSLSASVGDRVTITCSASQDISNYLNWYQQKPGKAPKVLIYFTSSLHSGVPSRFSGSGSGTDFTLTISSLQPEDFATYYCQQYSTVPWTFGQGTKVEIKRTVAAPSVFIFPPSDEQLKSGTASVVCLLNNFYPREAKVQWKVDNALQSGNSQESVTEQDSKDSTYSLSSTLTLSKADYEKHKVYACEVTHQGLSSPVTKSFNRGEC
notes: DVD-Ig; HC short, LC short linker; also called DVD044H; DVD044L
Molecule B2 had an EC50 in assay [2] of 0.25 nM.

B3: DVD511 (bispecific antibody, human IgG1, kappa)
heavy: EVQLQQSGPELEKPGASVKISCKASGYSFTGYNMNWVKQSNGKSLEWIGNIDPYFGGTNYNQKFKGKATLTVDKSSSTAYMQLKSLTSEDSAVYYCARNYDYDGGCFDYWGQGTTLTVSSASTKGPEVQLVESGGGLVQPGGSLRLSCAASGYTFTNYGMNWVRQAPGKGLEWVGWINTYTGEPTYAADFKRRFTFSLDTSKSTAYLQMNSLRAEDTAVYYCAKYPHYYGSSHWYFDVWGQGTLVTVSS[omitted - human IgG1 constant region]
light: QAVVTQESALTTSPGETVTLTCRSSTGAVTTSNYANWVQEKPDHLFTGLIGGTNNRAPGVPARFSGSLIGDKAALTITGAQTEDEAIYFCALWYSNHWVFGGGTKLTVLGQPKAAPDIQMTQSPSSLSASVGDRVTITCSASQDISNYLNWYQQKPGKAPKVLIYFTSSLHSGVPSRFSGSGSGTDFTLTISSLQPEDFATYYCQQYSTVPWTFGQGTKVEIKRTVAAPSVFIFPPSDEQLKSGTASVVCLLNNFYPREAKVQWKVDNALQSGNSQESVTEQDSKDSTYSLSSTLTLSKADYEKHKVYACEVTHQGLSSPVTKSFNRGEC
notes: DVD-Ig; HC short, LC short linker; also called DVD511H; DVD511L
In turn, B3 yielded an EC50 in assay [2] of 0.1 nM. This EC50 is about 2.5-fold lower than that of the molecule before.

B4: DVD493 (bispecific antibody, human IgG1, kappa)
heavy: EVQLQQSGPELVKPGASVKMSCKASGYTFTSYVINWVKQKPGQGLEWIGLINPYNDGTKYNEKFKVKATLTSDKSSSTAYMELSSLTSEDSAVYYCASYYYGSRYYFDYWGQGTTLTVSSASTKGPSVFPLAPEVQLVESGGGLVQPGGSLRLSCAASGYTFTNYGMNWVRQAPGKGLEWVGWINTYTGEPTYAADFKRRFTFSLDTSKSTAYLQMNSLRAEDTAVYYCAKYPHYYGSSHWYFDVWGQGTLVTVSS[omitted - human IgG1 constant region]
light: DIQMTQSSSYLSVSLGGRVTITCKASDHINNWLAWYQQKPGNAPRLLISGATSLETGVPSRFSGSGSGKDYTLSITSLQTEDVATYYCQQYWSIPLTFGAGTKLELKRTVAAPSVFIFPPDIQMTQSPSSLSASVGDRVTITCSASQDISNYLNWYQQKPGKAPKVLIYFTSSLHSGVPSRFSGSGSGTDFTLTISSLQPEDFATYYCQQYSTVPWTFGQGTKVEIKRTVAAPSVFIFPPSDEQLKSGTASVVCLLNNFYPREAKVQWKVDNALQSGNSQESVTEQDSKDSTYSLSSTLTLSKADYEKHKVYACEVTHQGLSSPVTKSFNRGEC
notes: DVD-Ig; HC long, LC long linker; also called DVD493H; DVD493L
For B4, in assay [1], the midpoint of the response, the EC50, lay at 0.06 nM.

B5: DVD517 (bispecific antibody, human IgG1, kappa, lambda)
heavy: EVQLQQSGPELEKPGASVKISCKASGYSFTGYNMNWVKQSNGKSLEWIGNIDPYFGGTNYNQKFKGKATLTVDKSSSTAYMQLKSLTSEDSAVYYCARNYDYDGGCFDYWGQGTTLTVSSASTKGPSVFPLAPEVQLVESGGGLVQPGGSLRLSCAASGYTFTNYGMNWVRQAPGKGLEWVGWINTYTGEPTYAADFKRRFTFSLDTSKSTAYLQMNSLRAEDTAVYYCAKYPHYYGSSHWYFDVWGQGTLVTVSS[omitted - human IgG1 constant region]
light: QAVVTQESALTTSPGETVTLTCRSSTGAVTTSNYANWVQEKPDHLFTGLIGGTNNRAPGVPARFSGSLIGDKAALTITGAQTEDEAIYFCALWYSNHWVFGGGTKLTVLGQPKAAPSVTLFPPDIQMTQSPSSLSASVGDRVTITCSASQDISNYLNWYQQKPGKAPKVLIYFTSSLHSGVPSRFSGSGSGTDFTLTISSLQPEDFATYYCQQYSTVPWTFGQGTKVEIKRTVAAPSVFIFPPSDEQLKSGTASVVCLLNNFYPREAKVQWKVDNALQSGNSQESVTEQDSKDSTYSLSSTLTLSKADYEKHKVYACEVTHQGLSSPVTKSFNRGEC
notes: DVD-Ig; HC long, LC long linker; also called DVD517H; DVD517L
In assay [1], B5 displayed an EC50 of 0.1 nM.

B6: DVD595 (bispecific antibody, human IgG1, kappa)
heavy: QVQLQQSGAELVKPGASVKISCKASGYTFTDYYINWVKLAPGQGLEWIGWIYPGSGNTKYNEKFKGKATLTIDTSSSTAYMQLSSLTSEDTAVYFCVRDSPFFDYWGQGTLLTVSSASTKGPEVQLVESGGGLVQPGGSLRLSCAASGYTFTNYGMNWVRQAPGKGLEWVGWINTYTGEPTYAADFKRRFTFSLDTSKSTAYLQMNSLRAEDTAVYYCAKYPHYYGSSHWYFDVWGQGTLVTVSS[omitted - human IgG1 constant region]
light: DIVLTQSPDSLAVSLGERVTMNCKSSQSLLNSGMRKSFLAWYQQKPGQSPKLLIYWASTRESGVPDRFTGSGSGTDFTLTISSVQAEDVAVYYCKQSYHLFTFGSGTKLEIKRTVAAPSVFIFPPDIQMTQSPSSLSASVGDRVTITCSASQDISNYLNWYQQKPGKAPKVLIYFTSSLHSGVPSRFSGSGSGTDFTLTISSLQPEDFATYYCQQYSTVPWTFGQGTKVEIKRTVAAPSVFIFPPSDEQLKSGTASVVCLLNNFYPREAKVQWKVDNALQSGNSQESVTEQDSKDSTYSLSSTLTLSKADYEKHKVYACEVTHQGLSSPVTKSFNRGEC
notes: also called DVD595VH; DVD595VL
In the case of B6, the IC50 in assay [3] was found to be 3.65 nM. That is a single-digit nanomolar value.

B7: DVD487 (bispecific antibody, human IgG1, kappa)
heavy: EVQLQQSGPELVKPGASVKMSCKASGYTFTSYVINWVKQKPGQGLEWIGLINPYNDGTKYNEKFKVKATLTSDKSSSTAYMELSSLTSEDSAVYYCASYYYGSRYYFDYWGQGTTLTVSSASTKGPEVQLVESGGGLVQPGGSLRLSCAASGYTFTNYGMNWVRQAPGKGLEWVGWINTYTGEPTYAADFKRRFTFSLDTSKSTAYLQMNSLRAEDTAVYYCAKYPHYYGSSHWYFDVWGQGTLVTVSS[omitted - human IgG1 constant region]
light: DIQMTQSSSYLSVSLGGRVTITCKASDHINNWLAWYQQKPGNAPRLLISGATSLETGVPSRFSGSGSGKDYTLSITSLQTEDVATYYCQQYWSIPLTFGAGTKLELKRTVAAPDIQMTQSPSSLSASVGDRVTITCSASQDISNYLNWYQQKPGKAPKVLIYFTSSLHSGVPSRFSGSGSGTDFTLTISSLQPEDFATYYCQQYSTVPWTFGQGTKVEIKRTVAAPSVFIFPPSDEQLKSGTASVVCLLNNFYPREAKVQWKVDNALQSGNSQESVTEQDSKDSTYSLSSTLTLSKADYEKHKVYACEVTHQGLSSPVTKSFNRGEC
notes: DVD-Ig; HC short, LC short linker; also called DVD487H; DVD487L
In assay [2], B7 returned an EC50 of 0.14 nM. That is a sub-nanomolar value.

The EC50 is the concentration giving half of the maximal effect. A word on the IC50: it is the concentration that inhibits the measured activity by half.
